In all, about 33,000 sequences were measured (“E-score (-0.5 to 0.5)”: median about -0.017, highest 2% from about 0.3 on). The list shows a part of the results.
target: T1, Sut1 (UniProt P53032); assay: PBM E-score (8-mer binding enrichment) (E-score (-0.5 to 0.5)); higher = stronger / more preferred TF binding; most listed sequences are background and not binding sites; details: protein concentration: 200 nM; construct: GST-full length
T1 sequence: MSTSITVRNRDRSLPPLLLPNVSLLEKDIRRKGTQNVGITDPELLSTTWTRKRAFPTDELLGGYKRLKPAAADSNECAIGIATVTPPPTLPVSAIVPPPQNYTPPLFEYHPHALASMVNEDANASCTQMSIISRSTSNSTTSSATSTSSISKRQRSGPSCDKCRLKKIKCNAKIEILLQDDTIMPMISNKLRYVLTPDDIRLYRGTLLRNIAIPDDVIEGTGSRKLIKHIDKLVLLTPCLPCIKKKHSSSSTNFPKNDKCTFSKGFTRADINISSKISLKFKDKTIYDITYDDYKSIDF
Protocol: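 Universal 'all 10-mer' protein binding microarrays (Agilent AMADID 015681) probed with GST-tagged S. cerevisiae TFs (full-length or DBD) made by in vitro transcription/translation (PURExpress), about 100-200 nM. Bound TF was detected with fluorescent anti-GST. Each ungapped 8-mer (which stands for itself and its reverse complement) is scored by the PBM enrichment score (E-score), a modified Wilcoxon-Mann-Whitney statistic from -0.5 to +0.5, computed with the Universal PBM Analysis Suite. Scale: above 0.35 generally sequence-specific binding.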

Sequence	PBM E-score
AGCTGCGC	-0.119
TAAATCTA	0.132
AGGGAAGG	-0.277
GCTCCCGA	-0.137
CGAGGTCA	-0.0467
CAAAATCA	0.215
TCTCAAGA	0.00674
AATAGAGC	0.0828
GGCCCGGA	0.305
AAGAGTAC	0.0213
CCGCGCCC	-0.185
GTCTTGGA	0.0857
CGTATGGC	-0.0261
CCCGTTAG	-0.0959
AGGCCGGC	-0.11
ATATGAAT	0.227
ACGCAAAC	-0.0168
ACCCCAGC	-0.154
ATTACGAA	0.147
CCCGACAG	-0.175
CCCATCAG	-0.417
TATTTTAA	0.23
CGGCATAG	-0.0919
ATGTCTAG	0.043
CCTCGGTA	-0.0533

Sequence	PBM E-score
CCCAGCCA	-0.00153
ATACGTGA	0.179
CGCGTTAG	-0.133
ACCTATGC	-0.0957
ACGTCTTC	-0.0853
ATGAACTA	0.216
AGGTGCTA	-0.0109
GATGGTGC	-0.409
TCCGGAGA	0.409
ACCAACTA	0.141
CCACCTAG	-0.239
CATCATCG	0.0778
AAGACCGC	0.107
ATCTGACC	-0.00655
ATTTACGA	0.25
GAGTGATC	0.0533
GCTGGGCA	-0.224
TAGGCAGA	0.0973
AGCGTGAA	-0.182
AGGTCCTC	-0.0783
CGCTGTAC	-0.0533
CGCCGTCA	-0.328
ACCCTTCT	-0.0938
TCCGCTAA	0.105
ACATGGGC	-0.0643

Sequence	PBM E-score
GAGCGCGA	-0.0677
CACGGAAG	-0.0741
GCTGCTCC	-0.173
AACGTAGC	-0.0733
ATGACTTA	0.156
CTGTAGAC	-0.0463
CGCGCGCG	-0.0395
ATACTCGA	-0.0765
CTGGATTA	0.0735
TCGCTGCA	-0.206
TTACACAA	0.162
CGCCGTGC	-0.0961
TCGATCGA	-0.057
ACATTTAG	0.0192
GCTCGCGA	0.0224
GATAGGTA	0.174
AATCCTGG	-0.104
CATCGCCA	-0.0767
GATATCTA	0.0817
AAACCCTT	0.0235
AACTGGCC	-0.0834
CCAAGATA	-0.0422
AGCGTTAT	-0.0427
ACGATGTC	-0.101
CATGCCAG	-0.268

Sequence	PBM E-score
GAAGGTGC	-0.107
CGCTTAGA	-0.184
GTTCTCTA	0.119
AGCGAACG	-0.208
GATACAGA	0.0796
ACGAATCG	-0.00053
CGGTTGCA	-0.231
CGGAGCCG	0.338
GATACCTA	0.166
ATCATGAG	0.0216
CGTTTCTA	0.0135
ATTTCGCC	0.0925
CTTCTCGC	0.0589
CGGCTGAC	0.0338
AGCTACAC	-0.0563
AGTGTTTG	0.0374
TACTAGCA	-0.0541
TCCAGTAA	-0.133
CCCACGAA	-0.113
CTTAGGAC	-0.195
CAGCAGCC	-0.193
CCCATGCC	-0.337
CACGCAAC	0.125
AACACCTA	-0.111
ACGGTCAC	-0.215

Sequence	PBM E-score
GCTACCCC	-0.202
CGTACCAC	-0.0473
CAGAAGGG	-0.238
CCGCCAGA	-0.0923
ACGCCACG	-0.226
GACACACA	-0.0451
ATCCGCCC	-0.171
ACACGCAC	-0.147
ACACTGTG	-0.122
TCCGAACA	0.399
AAAGGGGA	-0.245
CGCGCGAC	-0.181
ATATATTA	0.282
GTGAACAC	-0.041
GGCGCGAA	-0.0925
AGTGACCA	0.0114
AGTAAGTG	-0.0333
TCTTAGCA	-0.106
TCGTTAGA	-0.105
ACGAGTGA	-0.115
ACAACATG	0.0137
ATGCGGAG	0.259
AGTTCTAT	0.0966
CTGTTGGC	-0.134
TGTTAGAA	0.215

Sequence	PBM E-score
ACACCTAT	-0.111
GTATAAAA	0.317
GCCTCTCA	-0.216
CATCCCGA	0.137
GGCTGGGA	-0.153
GGTTTCAC	0.13
GTAACTTA	0.134
CCCAGGCA	-0.237
AACGGCCG	0.101
AACCTCTC	-0.13
AGACGTAC	-0.163
CCGTGAGG	-0.236
CGATACTC	-0.0472
GACCTTCC	0.0118
GTATGTAA	0.174
GACCGGTC	0.0546
ACACGGAC	0.278
CACAATTA	0.131
CCCGTAAA	0.00847
CATATTAG	0.0699
AGGCTCCA	-0.178
ACATGGGA	-0.0411
GGCTTGTA	-0.16
GCGGCCAA	-0.066
ATTCCTGG	-0.175

Sequence	PBM E-score
GAAGGGGA	-0.322
ATTACTAG	0.0299
ATCGGGAA	0.0926
CGTAGTTA	0.17
CCGATCAG	0.0279
TACCCAGA	0.0156
CACGCGTG	0.0395
ACGTTAAT	0.146
CACCGAAC	-0.0118
AACCGTAC	-0.0756
CCCCGTTC	0.0147
GTAATCAC	-0.13
AGCGCACA	-0.0617
GATAAGCC	-0.115
ACCCACCG	-0.0418
CCGCTCCA	-0.192
ATTCCACC	0.0638
AAGGGAAT	-0.146
ACTGACAC	0.069
GAGCCGAA	-0.0551
AGGCGTGA	-0.209
CAAGGCAG	-0.168
CCTCAAGG	-0.176
TGGCGTAA	-0.113
AAAGAGGC	0.0186

Sequence	PBM E-score
CGATCCAC	-0.146
ATGCAGGC	-0.173
CGTAATAA	0.0956
TTCCACAA	0.168
TACAGCCA	-0.098
CGTATCGC	-0.104
CGCACTAA	0.0754
ACGAGGAC	-0.0726
ATCGAAGA	0.156
CTCCTCTC	-0.171
GCCCCCAC	-0.255
CTGAACGA	-0.256
CACGCCTG	-0.334
AAGTACCG	0.141
CGCATTGC	-0.174
ATGCCGTA	0.0177
CGGATCAC	0.19
GCCTTACA	-0.0669
CCACCGTC	-0.154
TATGCTAA	0.0693
AGTAAGCG	-0.00838
AAGTTCTC	0.211
TATACGGA	0.312
CCCTTTAA	0.0269
AGACAGCC	-0.123

Sequence	PBM E-score
AAGTTTGT	0.202
CCATCCGC	-0.157
CACACACC	-0.0548
CTCCGGCC	0.376
CTCTCTCA	-0.134
CATCTCAC	-0.142
GTCACATA	0.15
AACCGATC	0.00599
AGCACCAA	0.17
ACATCGTG	-0.184
AAGGATTG	0.0777
GCATGCAC	-0.0395
CCGAATCA	0.0456
GCCATTAA	0.0379
ACAGTCCC	-0.2
TAGGGGAA	-0.0298
AGAAGGAT	-0.049
ACCCCATA	-0.115
CCTTGAAG	-0.0873
GACTCCCA	-0.256
GCGTTATA	-0.0273
CATGGGTC	-0.185
AGCTCTAG	-0.0334
GAATCAAC	0.162
GACACGAA	-0.0977

Sequence	PBM E-score
GGGTCGTA	-0.113
CACATCAA	0.0836
TACGTGCA	-0.171
CGTATATC	0.0188
ACCGCAAC	0.165
ATCCCCCC	-0.461
CTCAGGCC	-0.305
CGTGCCTA	-0.182
ACTCCGCT	0.452
AGTACTCG	0.0601
CTTTTCCA	0.0423
CGCCAGGC	-0.0821
AGTTCACA	0.148
AGGTTAGA	-0.127
TCAATCAA	0.177
ATGGAGTG	-0.0878
ACTATCAT	0.18
AAACGGCT	-0.0414
AAGTGAAG	0.0277
AGCAGGCA	-0.137
TACCACAA	0.112
TCCTAACA	0.016
AGTCGATC	-0.115
AAAACACC	0.0604
ACGTAGCG	-0.233

Sequence	PBM E-score
CTTCAGCC	-0.227
ACGACAAA	0.172
AAGAGTCT	-0.129
CAAGGTCG	-0.176
CGGGCCTC	-0.145
CACTGAAG	0.0667
CGAGTTAA	0.146
AATTGGTA	0.115
GCTGTCTA	-0.0267
CGATTCAG	0.0122
CCATTAGC	0.00246
TCCCGACA	0.119
GTCCTCTA	-0.187
AAAGAATA	0.241
AATAAGAA	0.197
AGACTTCA	-0.0862
CAACGGAC	0.291
ATGGGCCC	-0.179
AGGGCGTC	-0.0183
CTTCGTGC	-0.0943
CTCCCCTA	-0.145
ATTTTACA	0.125
CGCCGCAG	-0.147
CGCTTGCA	0.139
ACGCCAGC	-0.182

Sequence	PBM E-score
GGCGACTA	-0.185
CTCAATCC	0.00324
TAGCCTCA	-0.134
CCGCTGCC	-0.153
CAAATACC	0.0342
ACGACGCC	-0.173
ATGCGAGA	0.106
CATCAAAG	-0.169
ACTACGTG	-0.352
AAACTATA	0.177
AAACCTTA	0.203
CACCGTGG	-0.194
CAGTCCGC	0.196
GGCTGCGA	-0.067
AGCTAAAG	0.097
ACTGGGAT	0.0387
ACATATAC	0.088
CGGCAGGC	-0.137
AGGCAAGG	-0.185
ATGGACGG	0.164
CGTAATTA	0.206
GGAGTCGA	0.0511
CGTACGAC	0.0392
CAGATCAC	0.0266
CGATGGAG	0.0475

Sequence	PBM E-score
GTGATTCA	-0.119
CGGCGGGC	-0.0779
ACGCTGGG	-0.254
GGTAGTTA	0.166
AGTAACAA	0.138
CGCCTACA	0.00062
CGCCTAGC	-0.211
GCACGCAA	-0.143
GGAATATA	0.088
CTACAGAG	-0.133
ATGGTGGC	-0.286
GAGTCATA	0.0512
ATATTTAC	0.282
AAAAGTGA	0.237
GGAACGGA	0.211
CATGCAAG	-0.0592
CCGAGCTA	0.0447
CACGAGGA	-0.225
TATGTAGA	0.0717
AGATGAGC	-0.0376
ATCCTGTA	0.0559
AGCAAATG	-0.0134
TAGAGACA	-0.00896
GGCATTAC	0.0477
GAGATCTC	0.126

Sequence	PBM E-score
CAATCGGG	-0.0802
CTGCGTCC	-0.193
GGCTTTAA	0.0546
CGCGTCAA	-0.0129
ATCGTGAG	-0.0729
AGCCAAAC	0.0722
CGAATCTC	0.037
ATACTAAA	0.202
ATGCCTAA	-0.021
CGCTGGAG	-0.102
CACGAACG	-0.0455
CTAACGTC	0.0521
GAGGACTA	0.0368
GAGTGACA	0.0371
ACCGCCTG	-0.21
ATCTACCA	0.0706
CCCACCAC	-0.114
GATGGTGA	-0.174
GACTGCGA	0.00432

From the supplement of paper PMC3334620
